Reference: the supplement of paper PMC4604168 (melanoma cell lines)
Some of the results follow. Most values come without repeats; read them as rough.

Legend:
Test in all cases: cell count relative to DMSO control; melanoma cells; higher = more viable cells
Conditions in all cases: library dose: low library concentration; 72 h
MZ2-MEL = test system: MZ2-MEL
MeWo = test system: MeWo
RPMI7951 = test system: RPMI7951
RVH-421 = test system: RVH-421
SkMel28 = test system: SkMel28
SkMel30 = test system: SkMel30
SkMel5 = test system: SkMel5
UACC257 = test system: UACC257
UACC62 = test system: UACC62
SkMel2 = test system: SkMel2
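Further: cell number obtained by counting DAPI-stained nuclei in high-throughput microscope images with image analysis software, screen run in 1,536-well plates.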

Row | SMILES | cell count (MZ2-MEL) | cell count (MeWo) | cell count (RPMI7951) | cell count (RVH-421) | cell count (SkMel28) | cell count (SkMel30) | cell count (SkMel5) | cell count (UACC257) | cell count (UACC62) | cell count (SkMel2)
1 | CC(C)(C)c1cnc(CSc2cnc(NC(=O)C3CCNCC3)s2)o1 + Cc1cc([N+](=O)[O-])ccc1NS(=O)(=O)c1cc(Cl)ccc1Cl [FH535] (first compound 0.01 µM, partner dose 1 µM) | 92.6% | 95.7% | 113% | 97.5% | 79.8% | 100% | 83.4% | 89.6% | 76.2% | –
2 | CC(C)(C)c1cnc(CSc2cnc(NC(=O)C3CCNCC3)s2)o1 + Cn1cc(/C=C2\C(=O)Nc3cccnc32)c2ccccc21 [GW441756] (first compound 0.01 µM, partner dose 0.4 µM) | 102% | 109% | 101% | 81.8% | 95.8% | 103% | 86.6% | 76% | 94.4% | –
3 | CCc1ccc(CCOc2ccc(CC3SC(=O)NC3=O)cc2)nc1 (stereo unspecified) [pioglitazone] + COc1ccc(-c2ccc3c(N4CCOCC4)nc(N4C[C@@H](C)O[C@@H](C)C4)nc3n2)cc1CO [KU0063794] (first compound 2 µM, partner dose 0.02 µM) | 102% | 93.7% | 95.8% | 117% | 99.6% | 82.3% | 89.8% | 88.2% | 94.5% | –
4 | CCc1ccc(CCOc2ccc(CC3SC(=O)NC3=O)cc2)nc1 (stereo unspecified) [pioglitazone] + CC(C)CCN1c2nc(Nc3cc(F)c(O)c(F)c3)ncc2N(C)C(=O)C1C [BID1870] (first compound 2 µM, partner dose 0.2 µM) | 103% | 86.3% | 91% | 93.3% | 79.7% | 91% | 97.1% | 81.8% | 73.5% | –
5 | CN(NC(=O)CC(=O)NN(C)C(=S)c1ccccc1)C(=S)c1ccccc1 + O=c1cc(-c2cccc3c2Sc2ccccc2S3)oc(N2CCOCC2)c1 [KU55933] (first compound 0.006 µM, partner dose 1 µM) | 102% | 91.5% | 120% | 129% | 81% | 77.1% | 96.7% | 110% | 110% | –
6 | CN(NC(=O)CC(=O)NN(C)C(=S)c1ccccc1)C(=S)c1ccccc1 + Oc1cc(-c2nc(-c3ccccc3)[nH]c2-c2ccncc2)ccc1Cl [L779450] (first compound 0.006 µM, partner dose 0.2 µM) | 83.2% | 77.8% | 113% | 79.3% | 90.8% | 82.6% | 93.3% | 83.9% | 67.2% | –
7 | CN(NC(=O)CC(=O)NN(C)C(=S)c1ccccc1)C(=S)c1ccccc1 + COc1ccc(COc2ccc(Cc3cnc(N)nc3N)cc2OC)cc1 [GW2580] (first compound 0.006 µM, partner dose 1 µM) | 102% | 81.7% | 105% | 81.4% | 100% | 108% | 88.1% | 94.2% | 76.9% | –
8 | COc1cc2c(Oc3ccc4[nH]c(C)cc4c3F)ncnc2cc1OCCCN1CCCC1 [cediranib] + Oc1nc(-c2ccc(C(F)(F)F)cc2)nc2c1CSCC2 [XAV939] (first compound 0.4 µM, partner dose 2 µM) | 97.2% | 97.2% | 90.5% | 90.4% | 104% | 111% | 75.6% | 76.2% | 93.4% | –
9 | CN(NC(=O)CC(=O)NN(C)C(=S)c1ccccc1)C(=S)c1ccccc1 + O=C(O)C(=O)Nc1sc2c(c1C(=O)O)CCNC2 [TCS401] (first compound 0.006 µM, partner dose 1.66667 µM) | 104% | 85.4% | 113% | 85.6% | 87.5% | 79.1% | 102% | 89.7% | 103% | –
10 | COc1cc2c(Oc3ccc4[nH]c(C)cc4c3F)ncnc2cc1OCCCN1CCCC1 [cediranib] + O=C1NC(=O)/C(=C/c2ccc(-c3ccc(F)cc3O)o2)S1 [AS252424] (first compound 0.4 µM, partner dose 1 µM) | 94.9% | 98.7% | 91.9% | 107% | 91.7% | 104% | 91.6% | 85.1% | 99.6% | –
11 | CC(C)(C)c1cnc(CSc2cnc(NC(=O)C3CCNCC3)s2)o1 + CC(C)CCN1c2nc(Nc3cc(F)c(O)c(F)c3)ncc2N(C)C(=O)C1C [BID1870] (first compound 0.01 µM, partner dose 0.2 µM) | 105% | 89.8% | 90.5% | 93.4% | 79.7% | 66.4% | 84.6% | 75.1% | 82.7% | –
12 | Cc1ccc(NC(=O)c2cccc(N(C)C)c2)cc1NC(=O)c1ccc(O)cc1 + COc1cc(N2CCC(N3CCN(C)CC3)CC2)ccc1Nc1ncc(Cl)c(Nc2ccccc2S(=O)(=O)C(C)C)n1 [NVP-TAE684] (first compound 2 µM, partner dose 0.08 µM) | 74.7% | 99.4% | 92.9% | 96.9% | 90.1% | 78.2% | 110% | 110% | 93.4% | –
13 | CC(C)(C)c1cnc(CSc2cnc(NC(=O)C3CCNCC3)s2)o1 + O=C1NC(=O)/C(=C/c2ccc(-c3ccc(F)cc3O)o2)S1 [AS252424] (first compound 0.01 µM, partner dose 1 µM) | 101% | 97.5% | 103% | 90.2% | 90.7% | 111% | 107% | 93.9% | 101% | –
14 | CCCCCCCCc1ccc(CCC(N)(CO)CO)cc1 [fingolimod] + COc1ccc(COc2ccc(Cc3cnc(N)nc3N)cc2OC)cc1 [GW2580] (first compound 2 µM, partner dose 1 µM) | – | 100% | 94% | 93.8% | 96.1% | 103% | 101% | 102% | 88.3% | 100%
15 | CCc1ccc(CCOc2ccc(CC3SC(=O)NC3=O)cc2)nc1 (stereo unspecified) [pioglitazone] + N#Cc1c(O)c2c(-c3ccc(-c4ccccc4O)cc3)csc2[nH]c1=O [A769662] (first compound 2 µM, partner dose 2 µM) | 109% | 97.2% | 97.3% | 112% | 95.5% | 119% | 110% | 107% | 115% | –
16 | COc1cc2c(Oc3ccc4[nH]c(C)cc4c3F)ncnc2cc1OCCCN1CCCC1 [cediranib] + O=c1cc(-c2cccc3c2Sc2ccccc2S3)oc(N2CCOCC2)c1 [KU55933] (first compound 0.4 µM, partner dose 1 µM) | – | 97.4% | 107% | 105% | 95.1% | 126% | 102% | 92.3% | 102% | –
17 | CCCCCCCCc1ccc(CCC(N)(CO)CO)cc1 [fingolimod] + COc1cc(N2CCC(N3CCN(C)CC3)CC2)ccc1Nc1ncc(Cl)c(Nc2ccccc2S(=O)(=O)C(C)C)n1 [NVP-TAE684] (first compound 2 µM, partner dose 0.08 µM) | – | 83.2% | 92.5% | 71.4% | 73.8% | 85.3% | 72.1% | 80.6% | 74.9% | –
18 | NC(=O)c1ccc(N(C(N)=O)c2c(F)cccc2F)nc1-c1ccc(F)cc1F + CC(=O)O[C@@]12CO[C@@H]1C[C@H](O)[C@@]1(C)C(=O)[C@H](O)C3=C(C)[C@@H](OC(=O)[C@H](O)[C@@H](NC(=O)OC(C)(C)C)c4ccccc4)C[C@@](O)([C@@H](OC(=O)c4ccccc4)[C@H]21)C3(C)C [Docetaxel] (first compound 0.4 µM, partner dose 0.0001 µM) | 57.9% | 56.9% | 41.4% | 70.2% | 63.2% | 56.7% | – | – | 46.4% | –
19 | NC(=O)c1ccc(N(C(N)=O)c2c(F)cccc2F)nc1-c1ccc(F)cc1F + CC(C)CCN1c2nc(Nc3cc(F)c(O)c(F)c3)ncc2N(C)C(=O)C1C [BID1870] (first compound 0.4 µM, partner dose 0.2 µM) | – | 86.6% | 89.8% | 89.9% | 83.5% | 103% | 103% | 95.9% | 94.8% | –
20 | CCCCCCCCc1ccc(CCC(N)(CO)CO)cc1 [fingolimod] + CNC(=O)c1cc(Oc2ccc(NC(=O)Nc3ccc(Cl)c(C(F)(F)F)c3)cc2)ccn1 [sorafenib] (first compound 2 µM, partner dose 0.4 µM) | 75.3% | 85.7% | 67.3% | 115% | 91.4% | 84% | – | – | 79.5% | –
21 | NC(=O)c1ccc(N(C(N)=O)c2c(F)cccc2F)nc1-c1ccc(F)cc1F + CCc1ccc(CCOc2ccc(CC3SC(=O)NC3=O)cc2)nc1 [pioglitazone] (first compound 0.4 µM, partner dose 2 µM) | – | 113% | 90.8% | 114% | 106% | 90.9% | 109% | 88.3% | 103% | –
